The other results are listed elsewhere or left out.

In the assay the test system is HSkMC (human skeletal muscle cells). In words: cytotoxicity call (relative viability < 0.9). The settings on record: 10 µM.
On to `NC(=O)c1ccc([N+](=O)[O-])cc1Cl`, for which the cytotoxicity call was “inactive”. As to `CC(C)CC#Cc1cnc2c(c1)C(=O)N([C@H](C)CO)C[C@H](C)[C@@H](CN(C)S(=O)(=O)c1cn(C)cn1)O2`, the cytotoxicity call was “inactive”. Consider `C[C@H](CO)N1C[C@H](C)[C@H](CN(C)S(=O)(=O)c2ccc(F)cc2)OCCCC[C@H](C)Oc2ccc(NC(=O)Nc3ccc4c(c3)OCO4)cc2C1=O`, for which the cytotoxicity call is “inactive”.

Consider `C[C@@H]1CCCCO[C@H](CN(C)C(=O)c2ccccc2)[C@H](C)CN([C@@H](C)CO)C(=O)c2cc(NC(=O)C3CCCCC3)ccc2O1`, for which the cytotoxicity call was “inactive”. To `C=CC[C@@H](CC(=O)NCCO)C(=O)N[C@H](COC(=O)[C@H](CC=C)CC(=O)OC(C)(C)C)Cc1c[nH]c2ccccc12` belongs “inactive”; to `Cc1ccc(C)c(Cc2cc(Cl)ccc2Cl)c1`, “inactive”. On to `CN1CCc2nc(N)sc2C1`, for which the cytotoxicity call is “inactive”. In the case of `O=C(O[C@@H]1O[C@H]2COC(=O)c3cc(O)c(O)c(O)c3-c3c(cc(O)c(O)c3O)C(=O)O[C@@H]([C@H]1O)[C@@H]2OC(=O)c1cc(O)c(O)c(O)c1-c1c(C(=O)O)cc(O)c(O)c1O)c1cc(O)c(O)c(O)c1` it was “inactive”. For the molecule `COc1ccc(S(=O)(=O)Nc2ccc3c(c2)OC[C@@H](C)N(C)C[C@@H](C)[C@H](OC)CN(C)C3=O)cc1`, the cytotoxicity call is “inactive”. On to `CN1C(=O)c2cc(NC(=O)c3ccc(C(F)(F)F)cc3)ccc2OC[C@H]2O[C@H](CC(=O)NC3Cc4ccccc4C3)CC[C@H]21`, for which the cytotoxicity call is “inactive”. In the case of `COC(=O)c1c2oc(c1C(=O)OC)C(=O)N[C@H](Cc1ccccc1)Cn1cc(nn1)[C@@H](Cc1ccccc1)NC(=O)N[C@@H](COC(=O)NCCCCCC(=O)NO)CC2`, the cytotoxicity call was “inactive”.

For the origin of these results see the antibiotic and cytotoxicity screens of Wong et al. (2023).
